According to the supplement of paper PMC8512760:
Structures can show the parent of a compound that is named as a salt. The list shows a part of the results. Most values come without repeats; read them as rough.

These compounds were tested on MDA-468 (assay: cell viability relative to vehicle (% of vehicle); basal-like triple-negative breast cancer lines; higher = less cytotoxic). Details: 10 µM; 72 h.
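Further: stably firefly luciferase-GFP labeled cells in 96-well plates, viability read as luciferase photon flux after d-luciferin addition, treated wells normalized to vehicle wells, single-dose high-throughput screen.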

| SMILES | cell viability |
| --- | --- |
| CC(C)C(=O)OCC(=O)[C@@]12O[C@H](C3CCCCC3)O[C@@H]1C[C@H]1[C@@H]3CCC4=CC(=O)C=C[C@]4(C)[C@H]3[C@@H](O)C[C@@]12C [Ciclesonide] | 33.6 |
| Nc1ccn([C@@H]2O[C@H](CO)[C@@H](O)C2(F)F)c(=O)n1 [Gemcitabine HCl] | 46.2 |
| CC(=O)Oc1cc(C(F)(F)F)ccc1C(=O)O [Triflusal] | 106 |
| CN1CCC(COc2cnc(-c3cccc(Cn4nc(-c5cccc(C#N)c5)ccc4=O)c3)nc2)CC1 | 24 |
| CC1C(NC(=O)C(=NOC(C)(C)C(=O)O)c2csc(N)n2)C(=O)N1S(=O)(=O)O (centres undefined) [Aztreonam] | 88.2 |
| CS(=O)(=O)O.Cc1c(O)cccc1C(=O)NC(CSc1ccccc1)C(O)CN1CC2CCCCC2CC1C(=O)NC(C)(C)C (centres undefined) [Nelfinavir Mesylate] | 80.7 |
| Nc1ccc(S(=O)(=O)c2ccc(N)cc2)cc1 [Dapsone] | 99 |
| Cl.Cl.OCCOCCN1CCN(C(c2ccccc2)c2ccc(Cl)cc2)CC1 (centres undefined) [Hydroxyzine 2HCl] | 109 |
| Br.CN1CCCC1Cc1c[nH]c2ccc(CCS(=O)(=O)c3ccccc3)cc12 (centres undefined) [Eletriptan HBr] | 116 |
| COc1cccc2c1C(=O)c1c(O)c3c(c(O)c1C2=O)CC(O)(C(=O)CO)CC3OC1CC(N)C(O)C(C)O1.Cl (centres undefined) [Epirubicin HCl] | 22.1 |
| CC(=O)NCC1CN(c2ccc(N3CCOCC3)c(F)c2)C(=O)O1 (centres undefined) [Linezolid] | 52.6 |
| CCCCCC(O)C=CC1C(O)CC(=O)C1CCCCCCC(=O)O (centres undefined) [Alprostadil] | 120 |
| CCCC1CC(C(=O)NC(C(C)Cl)C2OC(SC)C(O)C(O)C2O)N(C)C1.Cl (centres undefined) [Clindamycin HCl] | 114 |
| Cc1ccc(Cl)c(Nc2ccccc2C(=O)[O-])c1Cl.[Na+] [Meclofenamate Sodium] | 106 |
| CC(C)(C)N.CCCC(NC(C)C(=O)N1C(C(=O)O)CC2CCCCC21)C(=O)OCC (centres undefined) [Perindopril Erbumine] | 91.5 |
| CN(C)c1nc(N(C)C)nc(N(C)C)n1 [Altretamine] | 81.7 |
| CC(C)(C)Cn1c(N)nc2ccc(-c3[nH]c(C(C)(C)C)nc3-c3ccc(F)cc3)nc21.CS(=O)(=O)O.CS(=O)(=O)O | 92.9 |
| CCC1C(O)C2C3CCC(C(C)CCC(=O)O)C3(C)CCC2C2(C)CCC(O)CC12 (centres undefined) [Obeticholic Acid] | 64 |
| O=c1[nH]c(=O)n(C2CC(O)C(CO)O2)cc1F (centres undefined) [Floxuridine] | 31.3 |
| CC(N)(Cc1ccc(O)c(O)c1)C(=O)O (centres undefined) [Methyldopa] | 104 |
| COc1cc(C=CC(=O)N2CCN(CC(=O)N3CCCC3)CC2)cc(OC)c1OC.O=C(O)C=CC(=O)O [Cinepazide maleate] | 112 |
| Cn1c(=O)c2c(ncn2CC2OCCO2)n(C)c1=O [Doxofylline] | 103 |
| Nc1c(CC(=O)[O-])cccc1C(=O)c1ccccc1.O.[Na+] [Amfenac Sodium Monohydrate] | 91.5 |
| Cl.NC(N)=NC(=O)Cc1c(Cl)cccc1Cl [Guanfacine hydrochloride] | 86.8 |
| CO[C@H]1/C=C/O[C@@]2(C)Oc3c(C)c(O)c4c(c3C2=O)C(=O)/C(=C/NN2CCN(C)CC2)C(=C4O)NC(=O)/C(C)=C/C=C/[C@H](C)[C@H](O)[C@@H](C)[C@@H](O)[C@@H](C)[C@H](OC(C)=O)[C@@H]1C [Rifampin] | 88.6 |
| CCCC(NC(C)C(=O)N1C(C(=O)O)CC2CCCCC21)C(=O)OCC (centres undefined) [Perindopril] | 116 |
| Cl.NCCCC(N)(C(=O)O)C(F)F.O (racemic) [DL-α-Difluoromethylornithine (hydrochloride hydrate)] | 92.5 |
| Cc1onc(-c2ccccc2)c1-c1ccc(S(N)(=O)=O)cc1 [Valdecoxib] | 111 |
| Nc1cc(C(Cl)=C(Cl)Cl)c(S(N)(=O)=O)cc1S(N)(=O)=O [Clorsulon] | 110 |

What follows are compounds tested on SUM-149 in the same assay as above. Details: 10 µM; 72 h.

| SMILES | cell viability |
| --- | --- |
| CO[C@H]1/C=C/O[C@@]2(C)Oc3c(C)c(O)c4c(O)c(c(/C=N/N5CCN(C6CCCC6)CC5)c(O)c4c3C2=O)NC(=O)/C(C)=C\C=C\[C@H](C)[C@H](O)[C@@H](C)[C@@H](O)[C@@H](C)[C@H](OC(C)=O)[C@@H]1C [Rifapentine] | 112 |
| CC1(C)SC2C(NC(=O)C(N)c3ccccc3)C(=O)N2C1C(=O)[O-].[Na+] (centres undefined) [Ampicillin] | 89.9 |
| CCOC(=O)C1=C(C)NC(C)=C(C(=O)OC)C1c1cccc(Cl)c1Cl (centres undefined) [Felodipine] | 113 |
| CCCC(=O)OC1(C(=O)COC(C)=O)CCC2C3CC(F)C4=CC(=O)C=CC4(C)C3(F)C(O)CC21C (centres undefined) [Difluprednate] | 199 |
| CNS(=O)(=O)Cc1ccc2[nH]cc(CCN(C)C)c2c1 [Sumatriptan] | 109 |
| COc1cc2ncnc(Nc3ccc(F)c(Cl)c3)c2cc1NC(=O)C=CCN1CCCCC1 | 34.8 |
| CN1CCC(=C2c3ccccc3CC(=O)c3sccc32)CC1.O=C(O)C=CC(=O)O [Ketotifen Fumarate] | 103 |
| CC(Cc1cc2c(c(C(N)=O)c1)N(CCCO)CC2)NCCOc1ccccc1OCC(F)(F)F (centres undefined) [Silodosin] | 100 |
| NC1CCCCC1N.O=C([O-])C(=O)[O-].[Pt+2] (centres undefined) [Oxaliplatin] | 158 |
| c1cc(CN2CCCNCCNCCCNCC2)ccc1CN1CCCNCCNCCCNCC1 [Plerixafor (AMD3100)] | 89.9 |
| CNC(=O)C(Cc1c[nH]c2ccccc12)NC(=O)C(CC(=O)NO)CC(C)C (centres undefined) | 72.3 |
| CC(C)C(=O)OCC(=O)[C@@]12O[C@H](C3CCCCC3)O[C@@H]1C[C@H]1[C@@H]3CCC4=CC(=O)C=C[C@]4(C)[C@H]3[C@@H](O)C[C@@]12C [Ciclesonide] | 115 |
| Nc1ccn([C@@H]2O[C@H](CO)[C@@H](O)C2(F)F)c(=O)n1 [Gemcitabine HCl] | 131 |
| CC(=O)Oc1cc(C(F)(F)F)ccc1C(=O)O [Triflusal] | 95.3 |
| CN1CCC(COc2cnc(-c3cccc(Cn4nc(-c5cccc(C#N)c5)ccc4=O)c3)nc2)CC1 | 30.7 |
| CC1C(NC(=O)C(=NOC(C)(C)C(=O)O)c2csc(N)n2)C(=O)N1S(=O)(=O)O (centres undefined) [Aztreonam] | 116 |
| CS(=O)(=O)O.Cc1c(O)cccc1C(=O)NC(CSc1ccccc1)C(O)CN1CC2CCCCC2CC1C(=O)NC(C)(C)C (centres undefined) [Nelfinavir Mesylate] | 116 |
| Nc1ccc(S(=O)(=O)c2ccc(N)cc2)cc1 [Dapsone] | 152 |
| Cl.Cl.OCCOCCN1CCN(C(c2ccccc2)c2ccc(Cl)cc2)CC1 (centres undefined) [Hydroxyzine 2HCl] | 96.2 |
| Br.CN1CCCC1Cc1c[nH]c2ccc(CCS(=O)(=O)c3ccccc3)cc12 (centres undefined) [Eletriptan HBr] | 106 |

| SMILES | cell viability |
| --- | --- |
| COc1cccc2c1C(=O)c1c(O)c3c(c(O)c1C2=O)CC(O)(C(=O)CO)CC3OC1CC(N)C(O)C(C)O1.Cl (centres undefined) [Epirubicin HCl] | 31.9 |
| CC(=O)NCC1CN(c2ccc(N3CCOCC3)c(F)c2)C(=O)O1 (centres undefined) [Linezolid] | 122 |
| CCCCCC(O)C=CC1C(O)CC(=O)C1CCCCCCC(=O)O (centres undefined) [Alprostadil] | 101 |
| CCCC1CC(C(=O)NC(C(C)Cl)C2OC(SC)C(O)C(O)C2O)N(C)C1.Cl (centres undefined) [Clindamycin HCl] | 135 |
| Cc1ccc(Cl)c(Nc2ccccc2C(=O)[O-])c1Cl.[Na+] [Meclofenamate Sodium] | 108 |
| CC(C)(C)N.CCCC(NC(C)C(=O)N1C(C(=O)O)CC2CCCCC21)C(=O)OCC (centres undefined) [Perindopril Erbumine] | 84.2 |
| CN(C)c1nc(N(C)C)nc(N(C)C)n1 [Altretamine] | 81 |
| CC(C)(C)Cn1c(N)nc2ccc(-c3[nH]c(C(C)(C)C)nc3-c3ccc(F)cc3)nc21.CS(=O)(=O)O.CS(=O)(=O)O | 50.9 |
| CCC1C(O)C2C3CCC(C(C)CCC(=O)O)C3(C)CCC2C2(C)CCC(O)CC12 (centres undefined) [Obeticholic Acid] | 96.5 |
| O=c1[nH]c(=O)n(C2CC(O)C(CO)O2)cc1F (centres undefined) [Floxuridine] | 50.8 |
| CC(N)(Cc1ccc(O)c(O)c1)C(=O)O (centres undefined) [Methyldopa] | 104 |
| COc1cc(C=CC(=O)N2CCN(CC(=O)N3CCCC3)CC2)cc(OC)c1OC.O=C(O)C=CC(=O)O [Cinepazide maleate] | 130 |
| Cn1c(=O)c2c(ncn2CC2OCCO2)n(C)c1=O [Doxofylline] | 116 |
| Nc1c(CC(=O)[O-])cccc1C(=O)c1ccccc1.O.[Na+] [Amfenac Sodium Monohydrate] | 102 |
| Cl.NC(N)=NC(=O)Cc1c(Cl)cccc1Cl [Guanfacine hydrochloride] | 131 |
| CO[C@H]1/C=C/O[C@@]2(C)Oc3c(C)c(O)c4c(c3C2=O)C(=O)/C(=C/NN2CCN(C)CC2)C(=C4O)NC(=O)/C(C)=C/C=C/[C@H](C)[C@H](O)[C@@H](C)[C@@H](O)[C@@H](C)[C@H](OC(C)=O)[C@@H]1C [Rifampin] | 85.5 |
| CCCC(NC(C)C(=O)N1C(C(=O)O)CC2CCCCC21)C(=O)OCC (centres undefined) [Perindopril] | 88.2 |
| Cl.NCCCC(N)(C(=O)O)C(F)F.O (racemic) [DL-α-Difluoromethylornithine (hydrochloride hydrate)] | 66.3 |
| Cc1onc(-c2ccccc2)c1-c1ccc(S(N)(=O)=O)cc1 [Valdecoxib] | 122 |
| Nc1cc(C(Cl)=C(Cl)Cl)c(S(N)(=O)=O)cc1S(N)(=O)=O [Clorsulon] | 137 |
